Some of the results follow.
target: T1, OsWOX13 (Oryza sativa, UniProt Q5QMM3 1-267); experiment: protein-binding microarray (RPBM); PBS, 2% BSA, 51.3 ng/ul salmon testes DNA, 50 uM zinc acetate, 200 nM TF, 25 C, 1 h; high values mean tight binding; conditions: protein: recombinant; tags: N-terminal polyhistidine and DsRed monomer fusion (pET32a); label: CyDye5-dUTP incorporated in the synthesized complementary strand; 3' TTTTT single-stranded linker to array surface; dsDNA, one strand shown
T1 sequence: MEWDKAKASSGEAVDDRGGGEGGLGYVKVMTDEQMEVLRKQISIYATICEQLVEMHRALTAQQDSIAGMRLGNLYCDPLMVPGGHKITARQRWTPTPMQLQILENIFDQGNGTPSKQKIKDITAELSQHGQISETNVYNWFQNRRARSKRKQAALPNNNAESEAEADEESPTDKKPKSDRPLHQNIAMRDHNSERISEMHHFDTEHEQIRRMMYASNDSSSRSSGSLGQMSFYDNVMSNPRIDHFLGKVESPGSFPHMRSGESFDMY
Procedure, shortened: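 A custom Agilent array was converted to double-stranded form by primer extension with Cy5-dUTP and blocked with 2% BSA. Protein at 200 nM in PBS with 2% BSA, salmon testes DNA and 50 µM zinc acetate was applied for 1 h at 25 °C, followed by washing. The proteins were polyhistidine–DsRed N-terminal fusions of transcription factors, expressed in E. coli BL21-CodonPlus and Ni–NTA-purified. The binding signal is per-feature fluorescence intensity (arbitrary units) from an Axon 4000B scanner.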

Point of comparison: “ATTGATAAGCCTAATTTAGACATCAAACCAAACCAGCCCTCGGAGTCACCTAGTGCAG”, binding signal 14300 fluorescence intensity (a.u.). Against it:
- GCCCGTTGCTCATCTCTCTCATCGTTTATCGCATTAAAATCGGAGTCACCTAGTGCAG — lower, 4230 fluorescence intensity (a.u.)
- ACTTGACAGGTAGCTCGGCCTTCTTTTCTCTCTCTCTCTCCGGAGTCACCTAGTGCAG — higher, 21100 fluorescence intensity (a.u.)
- GTACCAGCTAGCTAGCCAATCACGATATACAATTATACATCGGAGTCACCTAGTGCAG — lower, 3210 fluorescence intensity (a.u.)
- CGTGGTCTCTAATTTGTTTTGTTCGTTCTCCTTTCTTGTTCGGAGTCACCTAGTGCAG — lower, 4660 fluorescence intensity (a.u.)
- CTTACCAAAATTTAAATTTTGGCAGGATTTCTTATATAGTCGGAGTCACCTAGTGCAG — lower, 4040 fluorescence intensity (a.u.)
- TAAATTCAATTTAAATTTGAATTCAAATTTTATAGACCTACGGAGTCACCTAGTGCAG — higher, 27500 fluorescence intensity (a.u.)
- TGGCTTAATTTAATCCCCTCCATTCCGGATGCCTCTCCCTCGGAGTCACCTAGTGCAG — higher, 20200 fluorescence intensity (a.u.)
- ATGAGGAAATTGTTCAATTAAGATGATTCATTATCTTCTACGGAGTCACCTAGTGCAG — lower, 7070 fluorescence intensity (a.u.)
- AATTAAATTAGGCGAAATGAAAAGAAAGTCCCTGACCGAACGGAGTCACCTAGTGCAG — lower, 6550 fluorescence intensity (a.u.)
- GGAAATGTTATAATTGACTTACCTTGTGAAACGGAAGGAGCGGAGTCACCTAGTGCAG — higher, 28700 fluorescence intensity (a.u.)
- TATTGATTGGTTCAGATGGAGACATGTGCAACTTCGTGCTCGGAGTCACCTAGTGCAG — higher, 61700 fluorescence intensity (a.u.)
- CGCCCGGCGTCCCAATCATTGGGCGCTTTGTTTGCTTGCGCGGAGTCACCTAGTGCAG — lower, 4000 fluorescence intensity (a.u.)
- AGGCCCAATGATTTGTAAGGTGGGACATGACATAAGTGTGCGGAGTCACCTAGTGCAG — lower, 13800 fluorescence intensity (a.u.)
- GTTTGATGCAAATGGGAAATTGGCGTGTGGGGCCGGAGGGCGGAGTCACCTAGTGCAG — lower, 4380 fluorescence intensity (a.u.)
- CAAATAAAATTCAATAATTGTATACTCCTTATCTTGGATTCGGAGTCACCTAGTGCAG — lower, 4310 fluorescence intensity (a.u.)
- ATTAATTAAGTTATATACAGCAGTAGTTAATTAACTAGCTCGGAGTCACCTAGTGCAG — higher, 30400 fluorescence intensity (a.u.)
- CCCATAAATTTCTGGCCATTGATTCTTGGTCGAATGGCTACGGAGTCACCTAGTGCAG — lower, 5840 fluorescence intensity (a.u.)
- CTAACTGATACTAATTTCTTAGCAATTGTTTGTGGGTAGTCGGAGTCACCTAGTGCAG — higher, 23100 fluorescence intensity (a.u.)
- TACCATAATTTTGTCATTCTTGTTGAAATTTTGTAACATACGGAGTCACCTAGTGCAG — lower, 9640 fluorescence intensity (a.u.)
- TTATAATTAATTACATAAAGTAAATCTTTCTCAACTTTTCCGGAGTCACCTAGTGCAG — higher, 27400 fluorescence intensity (a.u.)
- ACATAATTTGGGCCCACCTGTAGGTGAAAATCCCGTTCTCCGGAGTCACCTAGTGCAG — lower, 4950 fluorescence intensity (a.u.)
- GTTTGTTCTTTGTTTGATTAGCTTGAGAGGAAGGGGATAACGGAGTCACCTAGTGCAG — lower, 7520 fluorescence intensity (a.u.)
- AGTTATTGATTTTCTGAGGATGTTTGTGTTGCATCCTGATCGGAGTCACCTAGTGCAG — higher, 20200 fluorescence intensity (a.u.)
- AGTAATTATTCACATACTAAATTAATCATTAAATGAGCTGCGGAGTCACCTAGTGCAG — higher, 25300 fluorescence intensity (a.u.)
- CATAATTGAGTCTGATTGGCACAAACCTAGAGAACATGCCCGGAGTCACCTAGTGCAG — higher, 65500 fluorescence intensity (a.u.)
- CGCCTCTTTCTCAATCATTGTATAGGAATGTTTGTTTATGCGGAGTCACCTAGTGCAG — lower, 7720 fluorescence intensity (a.u.)
- GTGATTGATTCGATTGATTGCCGCATCCACAGTTCTTTTCCGGAGTCACCTAGTGCAG — higher, 54700 fluorescence intensity (a.u.)
- GTTGATGGCGTAAACTAGAAGTACGCTTCTCCACTGCATCCGGAGTCACCTAGTGCAG — lower, 3210 fluorescence intensity (a.u.)
- AATGCTTGATTAATTAGTTGCTTATCCAACCACGCATCATCGGAGTCACCTAGTGCAG — higher, 31600 fluorescence intensity (a.u.)
- GGTATTGACATGACAGAATTAGCTCGACGTGGAAAACTGGCGGAGTCACCTAGTGCAG — higher, 34800 fluorescence intensity (a.u.)
- AATTAACTGTTACATTTGTATGGGCCTAATTAGACCCAGTCGGAGTCACCTAGTGCAG — higher, 20600 fluorescence intensity (a.u.)
- TTAATTGTTTTATCCTATTAATTGGTAGAAGCGGTATTTTCGGAGTCACCTAGTGCAG — higher, 26700 fluorescence intensity (a.u.)
- AGTTTTAAAATTTAAATTTTGGTTGGGTTGGCTGGTAAACCGGAGTCACCTAGTGCAG — lower, 8490 fluorescence intensity (a.u.)
- ATTAATCCCAAATTGATTAGTAGTCGCTAACTCGTGGGGACGGAGTCACCTAGTGCAG — higher, 42100 fluorescence intensity (a.u.)
- CTTGATTACCCCGTAGTCAGGTTTGTATGACTAAGCAACCCGGAGTCACCTAGTGCAG — higher, 28100 fluorescence intensity (a.u.)
- AACAAAGATTTGTTATCAAATAGTTGCAAATGATTAGTTACGGAGTCACCTAGTGCAG — lower, 3490 fluorescence intensity (a.u.)
- CCCGTGATCGATTGGATCATCGGATTGCATGTTAGTACTGCGGAGTCACCTAGTGCAG — lower, 12000 fluorescence intensity (a.u.)
- AATATATTTAATATTAGATTTGATGAAATTAATTAGGTGTCGGAGTCACCTAGTGCAG — higher, 14700 fluorescence intensity (a.u.)
- TTATGTCCCAGCCTTAGTGATTGAAGTTTCAAACAGTTCTCGGAGTCACCTAGTGCAG — lower, 8380 fluorescence intensity (a.u.)
- TAGAAATAATTGAGCACGTTTGTCTACACAAACGCAACGCCGGAGTCACCTAGTGCAG — higher, 19700 fluorescence intensity (a.u.)
- GGGATTGAATTGAATGACAACTGATGCCACGATTTCGACGCGGAGTCACCTAGTGCAG — higher, 42500 fluorescence intensity (a.u.)

— paper PMC7819943, “Rice protein-binding microarrays: a tool to detect cis-acting elements near promoter regions in rice”
